Tested on: human AEC2s
Assay: Serum-free differentiation of human AEC2s to AEC1
Assay type: cell-based
Conditions: SFFF 14 days, then ADM without serum + IL6 20 ng/nL
Source text: The medium was changed every three days.

## IL6: interleukin-6, 20 ng/mL supplement of serum-free differentiation medium
  differentiation of AEC2s into AEC1: sufficient to induce differentiation

Reference: patent US20220380734A1, “SYSTEMS AND METHODS FOR LUNG CELL EXPANSION AND DIFFERENTIATION” (DUKE UNIVERSITY, priority 2019, published 2022)
